According to the supplement of paper PMC10441789:
The list shows a part of the results. Antibody binding of pooled human sera (four to six donors per pool; dilution not stated) to peptides of the Trypanosoma cruzi antigen TSSA on microarrays. Quantile-normalised fluorescence in arbitrary units, mean of duplicate arrays; higher = more binding. No active / inactive call. The uninfected pools are read here as the healthy donors of the same country. The strongest signals lie near the top of the scale (about 60,000).

Legend:
Assay in all cases: antibody binding signal (normalised fluorescence) (arbitrary fluorescence units); higher = stronger serum antibody binding to peptide
[1] = tested on: pooled sera of chronic Chagas disease patients, Argentina
Protocol: (§1)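 Microarray of 15-residue peptides over residues 30-55 of Trypanosoma cruzi TSSAII, each with 1 to 10 substitutions at naturally variable positions, probed with one serum pool per country.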

[2] = tested on: pooled sera of chronic Chagas disease patients, Bolivia
Protocol: as §1

[3] = tested on: pooled sera of chronic Chagas disease patients, Brazil
Protocol: as §1

[4] = tested on: pooled sera of chronic Chagas disease patients, Colombia
Protocol: as §1

[5] = tested on: pooled sera of chronic Chagas disease patients, Mexico
Protocol: as §1

[6] = tested on: pooled sera of chronic Chagas disease patients, USA
Protocol: as §1

[7] = tested on: pooled sera of uninfected people, Argentina
Protocol: as §1

[8] = tested on: pooled sera of uninfected people, Bolivia
Protocol: as §1

[9] = tested on: pooled sera of uninfected people, Brazil
Protocol: as §1

[10] = tested on: pooled sera of uninfected people, Colombia
Protocol: as §1

[11] = tested on: pooled sera of uninfected people, Mexico
Protocol: as §1

[12] = tested on: pooled sera of uninfected people, USA
Protocol: as §1

Sequence	antibody binding signal [1]	antibody binding signal [2]	antibody binding signal [3]	antibody binding signal [4]	antibody binding signal [5]	antibody binding signal [6]	antibody binding signal [7]	antibody binding signal [8]	antibody binding signal [9]	antibody binding signal [10]	antibody binding signal [11]	antibody binding signal [12]
SGTDNKPAAGGAPSQ	2760	2020	45900	5000	427	573	199	844	394	283	440	276
TPPSGKDNKAAAGEA	3840	2300	2110	307	30100	3330	403	764	227	303	229	135
PPSGTEKKTATGEAP	28400	25600	17800	542	1530	20000	807	277	435	192	309	239
KEKKAATGETPSPPG	789	534	6210	177	202	7390	277	122	103	172	85.3	580
SGTDKKPAAGGAPSP	620	574	23000	9670	2780	1760	238	322	214	271	1740	245
ISTPPSGKEKKTATG	13300	190	280	397	19000	799	290	268	104	204	109	126
TDKKPAAGGAPSPSG	687	206	575	5890	377	839	178	918	307	106	135	207
DKKTATGGAPSPPGA	1130	565	1310	3410	1270	1240	340	176	110	116	283	148
ENKPAAGGTPSQPGA	386	2390	9370	1490	420	2210	319	562	1100	585	615	263
DKKPAAGETPSQPGA	908	1650	36100	180	264	2560	141	477	214	774	225	140
SGKDNKAATGEAPSQ	24800	24300	33300	569	459	24700	299	270	165	333	108	119
KDNKPAAGEAPSPPG	727	324	30200	390	145	14700	358	382	188	232	303	90.3
GKDNKAAAGGTPSQS	224	220	181	876	525	706	124	568	463	153	220	116
KTATGGTPSPPGASS	478	286	524	411	436	566	356	129	176	188	101	148
GTEKKTAAGEAPSQS	1240	8630	2870	973	1120	7340	235	943	168	1260	147	105
PSGKEKKAAAGGAPS	8070	3240	6750	13100	12400	7610	333	212	108	136	103	197
KKPATGGAPSQSGAS	530	443	311	371	444	553	347	552	95	103	133	250
GKDNKAATGEAPSQP	26200	24300	43100	3280	4090	25100	279	274	141	315	74.7	98.2
KENKTATGGTPSPSG	251	276	319	532	234	397	224	102	135	161	110	137
NKPAAGGAPSPSGAS	236	389	7980	2320	507	1260	730	894	533	366	157	1220
